# Some of the results follow.
# B1: FGFR2-Fc (protein)
# chain: MVNVTDAISSGDDEDDTDGAEDFVSENSNNKRAPYWTNTEKMEKRLHAVPAANTVKFRCPAGGNPMPTMRWLKNGKEFKQEHRIGGYKVRNQHWSLIMESVVPSDKGNYTCVVENEYGSINHTYHLDVVERSPHRPILQAGLPANASTVVGGDVEFVCKVYSDAQPHIQWIKHVEKNGSKYGPDGLPYLKVLKHSGINSSNAEVLALFNVTEADAGEYICKVSNYIGQANQSAWLTVLPKQQAPGREKEITASPDYLETRPLEQKLISEEDLAANDILDYKDDDDKV
# Assays:
# Experiment in all cases: glycan array binding signal (z-score within array); higher = stronger binding
# Conditions in all cases: glycan notation: IUPAC condensed, linker removed
# [1] = molecular target: GlcNAc(b1-3)Gal(b1-4)GlcNAc(b1-3)Gal(b1-4)GlcNAc(b1-2)Man(a1-3)[GlcNAc(b1-3)Gal(b1-4)GlcNAc(b1-3)Gal(b1-4)GlcNAc(b1-2)Man(a1-6)]Man(b1-4)GlcNAc(b1-4)[Fuc(a1-6)]GlcNAc
# Method in brief: (§1)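 From the Consortium for Functional Glycomics database, 3228 arrays were curated, keeping only those whose protein sequence was available. Binding is given as a within-array Z-score averaged across arrays sharing a protein sequence and across linkers. Negative Z-scores can be read as non-binding.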
# [2] = molecular target: GlcNAc(b1-3)Gal(b1-4)GlcNAc(b1-3)Gal(b1-4)GlcNAc(b1-2)[GlcNAc(b1-3)Gal(b1-4)GlcNAc(b1-3)Gal(b1-4)GlcNAc(b1-6)]Man(a1-6)[GlcNAc(b1-3)Gal(b1-4)GlcNAc(b1-3)Gal(b1-4)GlcNAc(b1-2)Man(a1-3)]Man(b1-4)GlcNAc(b1-4)[Fuc(a1-6)]GlcNAc
# Method in brief: as §1
# [3] = molecular target: GlcNAc(b1-3)Gal(b1-4)GlcNAc(b1-3)Gal(b1-4)GlcNAc(b1-3)Gal(b1-4)GlcNAc(b1-2)Man(a1-3)[GlcNAc(b1-3)Gal(b1-4)GlcNAc(b1-3)Gal(b1-4)GlcNAc(b1-3)Gal(b1-4)GlcNAc(b1-2)Man(a1-6)]Man(b1-4)GlcNAc(b1-4)GlcNAc
# Method in brief: as §1
# [4] = molecular target: GlcNAc(b1-3)Gal(b1-4)GlcNAc(b1-3)Gal(b1-4)GlcNAc(b1-3)Gal(b1-4)GlcNAc(b1-2)Man(a1-3)[GlcNAc(b1-3)Gal(b1-4)GlcNAc(b1-3)Gal(b1-4)GlcNAc(b1-3)Gal(b1-4)GlcNAc(b1-2)Man(a1-6)]Man(b1-4)GlcNAc(b1-4)[Fuc(a1-6)]GlcNAc
# Method in brief: as §1
# [5] = molecular target: GlcNAc(b1-3)Gal(b1-4)GlcNAc(b1-3)Gal(b1-4)GlcNAc(b1-3)Gal(b1-4)GlcNAc(b1-2)[GlcNAc(b1-3)Gal(b1-4)GlcNAc(b1-3)Gal(b1-4)GlcNAc(b1-3)Gal(b1-4)GlcNAc(b1-6)]Man(a1-6)[GlcNAc(b1-3)Gal(b1-4)GlcNAc(b1-3)Gal(b1-4)GlcNAc(b1-3)Gal(b1-4)GlcNAc(b1-2)Man(a1-3)]Man(b1-4)GlcNAc(b1-4)[Fuc(a1-6)]GlcNAc
# Method in brief: as §1
# [6] = molecular target: GlcNAc(b1-3)Gal(b1-4)GlcNAc(b1-3)Gal(b1-4)GlcNAc(b1-3)Gal(b1-4)GlcNAc(b1-3)Gal(b1-4)GlcNAc(b1-2)Man(a1-3)[GlcNAc(b1-3)Gal(b1-4)GlcNAc(b1-3)Gal(b1-4)GlcNAc(b1-3)Gal(b1-4)GlcNAc(b1-3)Gal(b1-4)GlcNAc(b1-2)Man(a1-6)]Man(b1-4)GlcNAc(b1-4)GlcNAc
# Method in brief: as §1
# [7] = molecular target: GlcNAc(b1-3)Gal(b1-4)GlcNAc(b1-3)Gal(b1-4)GlcNAc(b1-3)Gal(b1-4)GlcNAc(b1-3)Gal(b1-4)GlcNAc(b1-2)Man(a1-3)[GlcNAc(b1-3)Gal(b1-4)GlcNAc(b1-3)Gal(b1-4)GlcNAc(b1-3)Gal(b1-4)GlcNAc(b1-3)Gal(b1-4)GlcNAc(b1-2)Man(a1-6)]Man(b1-4)GlcNAc(b1-4)[Fuc(a1-6)]GlcNAc
# Method in brief: as §1
# [8] = molecular target: GlcNAc(b1-3)Gal(b1-4)GlcNAc(b1-3)Gal(b1-4)GlcNAc(b1-3)Gal(b1-4)GlcNAc(b1-3)Gal(b1-4)GlcNAc(b1-2)[GlcNAc(b1-3)Gal(b1-4)GlcNAc(b1-3)Gal(b1-4)GlcNAc(b1-3)Gal(b1-4)GlcNAc(b1-3)Gal(b1-4)GlcNAc(b1-6)]Man(a1-6)[GlcNAc(b1-3)Gal(b1-4)GlcNAc(b1-3)Gal(b1-4)GlcNAc(b1-3)Gal(b1-4)GlcNAc(b1-3)Gal(b1-4)GlcNAc(b1-2)Man(a1-3)]Man(b1-4)GlcNAc(b1-4)[Fuc(a1-6)]GlcNAc
# Method in brief: as §1
# [9] = molecular target: GlcNAc(b1-3)Gal(b1-4)GlcNAc(b1-3)Gal(b1-4)GlcNAc(b1-3)GalNAc
# Method in brief: as §1
# [10] = molecular target: GlcNAc(b1-3)Gal(b1-4)GlcNAc(b1-3)GalNAc
# Method in brief: as §1
# [11] = molecular target: GlcNAc(b1-3)Gal(b1-4)GlcNAc(b1-3)[GlcNAc(b1-3)Gal(b1-4)GlcNAc(b1-3)]GalNAc
# Method in brief: as §1
# [12] = molecular target: GlcNAc(b1-3)Gal(b1-4)GlcNAc(b1-6)[Gal(b1-3)]GalNAc
# Method in brief: as §1
# [13] = molecular target: GlcNAc(b1-3)Gal(b1-4)GlcNAc(b1-6)[GlcNAc(b1-3)Gal(b1-3)]GalNAc
# Method in brief: as §1
# [14] = molecular target: GlcNAc(b1-3)Gal(b1-4)GlcNAc(b1-6)[GlcNAc(b1-3)]Gal(b1-4)GlcNAc
# Method in brief: as §1
# [15] = molecular target: GlcNAc(b1-3)GalNAc
# Method in brief: as §1
# [16] = molecular target: GlcNAc(b1-3)Man
# Method in brief: as §1
# [17] = molecular target: GlcNAc(b1-3)[GlcNAc(b1-4)][GlcNAc(b1-6)]GlcNAc
# Method in brief: as §1
# [18] = molecular target: GlcNAc(b1-3)[GlcNAc(b1-6)]Gal(b1-4)GlcNAc
# Method in brief: as §1
# [19] = molecular target: GlcNAc(b1-3)[GlcNAc(b1-6)]GalNAc
# Method in brief: as §1
# [20] = molecular target: GlcNAc(b1-4)Gal(b1-4)GlcNAc
# Method in brief: as §1
# [21] = molecular target: GlcNAc(b1-4)GlcNAc
# Method in brief: as §1
# [22] = molecular target: GlcNAc(b1-4)GlcNAc(b1-4)GlcNAc
# Method in brief: as §1
# [23] = molecular target: GlcNAc(b1-4)GlcNAc(b1-4)GlcNAc(b1-4)GlcNAc(b1-4)GlcNAc
# Method in brief: as §1
# [24] = molecular target: GlcNAc(b1-4)GlcNAc(b1-4)GlcNAc(b1-4)GlcNAc(b1-4)GlcNAc(b1-4)GlcNAc
# Method in brief: as §1
# [25] = molecular target: GlcNAc(b1-4)[GlcNAc(b1-6)]GalNAc
# Method in brief: as §1
# [26] = molecular target: GlcNAc(b1-6)Gal(b1-4)GlcNAc
# Method in brief: as §1
# [27] = molecular target: GlcNAc(b1-6)GalNAc
# Method in brief: as §1
# [28] = molecular target: GlcNAc6S(b1-3)Gal(b1-4)GlcNAc
# Method in brief: as §1
# [29] = molecular target: Kdn(a2-3)Gal(b1-3)GalNAc
# Method in brief: as §1
# [30] = molecular target: Kdn(a2-3)Gal(b1-3)GlcNAc
# Method in brief: as §1
# [31] = molecular target: Kdn(a2-3)Gal(b1-4)Glc
# Method in brief: as §1
# [32] = molecular target: Kdn(a2-3)Gal(b1-4)GlcNAc
# Method in brief: as §1
# [33] = molecular target: Kdn(a2-3)Gal(b1-4)[Fuc(a1-3)]GlcNAc
# Method in brief: as §1
# [34] = molecular target: Kdn(a2-6)Gal(b1-4)GlcNAc
# Method in brief: as §1
# [35] = molecular target: Man(a1-2)Man(a1-2)Man(a1-3)Man
# Method in brief: as §1
# [36] = molecular target: Man(a1-2)Man(a1-2)Man(a1-6)[Man(a1-3)]Man
# Method in brief: as §1
# [37] = molecular target: Man(a1-2)Man(a1-3)Man
# Method in brief: as §1
# [38] = molecular target: Man(a1-2)Man(a1-3)[Man(a1-2)Man(a1-6)]Man
# Method in brief: as §1
binder,measurement,setting,value
B1,glycan array binding signal (z-score),[1],-0.077
same,glycan array binding signal (z-score),[2],0.724
same,glycan array binding signal (z-score),[3],0.005
same,glycan array binding signal (z-score),[4],0.272
same,glycan array binding signal (z-score),[5],0.322
same,glycan array binding signal (z-score),[6],0.739
same,glycan array binding signal (z-score),[7],0.274
same,glycan array binding signal (z-score),[8],0.822
same,glycan array binding signal (z-score),[9],0.549
same,glycan array binding signal (z-score),[10],-0.356
same,glycan array binding signal (z-score),[11],-0.174
same,glycan array binding signal (z-score),[12],-0.199
same,glycan array binding signal (z-score),[13],-0.384
same,glycan array binding signal (z-score),[14],-0.146
same,glycan array binding signal (z-score),[15],-0.187
same,glycan array binding signal (z-score),[16],-0.21
same,glycan array binding signal (z-score),[17],-1.12
same,glycan array binding signal (z-score),[18],0.399
same,glycan array binding signal (z-score),[19],-0.018
same,glycan array binding signal (z-score),[20],-0.052
same,glycan array binding signal (z-score),[21],-0.264
same,glycan array binding signal (z-score),[22],-0.354
same,glycan array binding signal (z-score),[23],0.035
same,glycan array binding signal (z-score),[24],-0.087
same,glycan array binding signal (z-score),[25],0.601
same,glycan array binding signal (z-score),[26],-0.048
same,glycan array binding signal (z-score),[27],-0.167
same,glycan array binding signal (z-score),[28],0.175
same,glycan array binding signal (z-score),[29],-0.212
same,glycan array binding signal (z-score),[30],-0.12
same,glycan array binding signal (z-score),[31],0.018
same,glycan array binding signal (z-score),[32],0.596
same,glycan array binding signal (z-score),[33],0.106
same,glycan array binding signal (z-score),[34],-0.47
same,glycan array binding signal (z-score),[35],-0.008
same,glycan array binding signal (z-score),[36],-0.626
same,glycan array binding signal (z-score),[37],-0.428
same,glycan array binding signal (z-score),[38],-0.403

# Reference: the supplement of paper PMC8728848
